The record followed here is US20230357444A1 (published 2023).

The target in this test is T1, human CD3 (native CD3 complex on human T cells) (human, UniProt P07766).
T1 construct: whole, on cells; also called human CD3+ T cell line HPB-ALL; human CD3 positive PBMC
The experiment in a line: FACS, HPB-ALL. On the technique in general: Flow cytometry measures light scatter and fluorescence of single cells or particles in a stream.

T1 sequence (P07766 23-207, one chain of several): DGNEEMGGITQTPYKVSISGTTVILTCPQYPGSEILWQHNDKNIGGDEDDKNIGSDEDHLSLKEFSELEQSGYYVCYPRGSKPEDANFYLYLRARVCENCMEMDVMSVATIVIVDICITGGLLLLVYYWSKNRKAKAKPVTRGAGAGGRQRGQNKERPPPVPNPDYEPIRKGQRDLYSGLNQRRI

B1: MCSP-G4 HLP × E1L HLP (bispecific antibody)
chain: QVQLVQSGAEVKRPGASMKVSCKASGYTFTNYYIHWVRQAPGQGLEWMGWINPNSGATNYAQKFQGRVTMTRDTSTSTVYMELSSLRSEDTAVYYCAKSWVSWFASWGQGTLVTVSSGGGGSGGGGSGGGGSELVMTQSPDSLAVSLGERATINCKSSQSVLNSSNNRNYLAWYQQKPGQPPKLLIYWASTRESGVPDRFSGSGSGTDFTLTISGLQAEDVAVYYCQQHYSTPFTFGPGTKVDIKSGGGGSEVQLLESGGGLVQPGGSLKLSCAASGFTFNKYAMNWVRQAPGKGLEWVARIRSKYNNYATYYADSVKSRFTISRDDSKNTAYLQMNNLKTEDTAVYYCVRHGNFGNSYTSYYAYWGQGTLVTVSSGGGGSGGGGSGGGGSELVVTQEPSLTVSPGGTVTLT[about 80 residues omitted here]FGGGTKLTVLHHHHHH
For B1, the binding result is “binds”.

B2: MCSP-G4 HLP × F6A HLP (bispecific antibody)
chain: QVQLVQSGAEVKRPGASMKVSCKASGYTFTNYYIHWVRQAPGQGLEWMGWINPNSGATNYAQKFQGRVTMTRDTSTSTVYMELSSLRSEDTAVYYCAKSWVSWFASWGQGTLVTVSSGGGGSGGGGSGGGGSELVMTQSPDSLAVSLGERATINCKSSQSVLNSSNNRNYLAWYQQKPGQPPKLLIYWASTRESGVPDRFSGSGSGTDFTLTISGLQAEDVAVYYCQQHYSTPFTFGPGTKVDIKSGGGGSEVQLLESGGGLVQPGGSLKLSCAASGFTFNIYAMNWVRQAPGKGLEWVARIRSKYNNYATYYADSVKSRFTISRDDSKNTAYLQMNNLKTEDTAVYYCVRHGNFGNSYVSFFAYWGQGTLVTVSSGGGGSGGGGSGGGGSELVVTQEPSLTVSPGGTVTLT[about 80 residues omitted here]FGGGTKLTVLHHHHHH
For the molecule B2, the binding result is listed as “binds”.

B3: MCSP-G4 HLP × G4H HLP (bispecific antibody)
chain: QVQLVQSGAEVKRPGASMKVSCKASGYTFTNYYIHWVRQAPGQGLEWMGWINPNSGATNYAQKFQGRVTMTRDTSTSTVYMELSSLRSEDTAVYYCAKSWVSWFASWGQGTLVTVSSGGGGSGGGGSGGGGSELVMTQSPDSLAVSLGERATINCKSSQSVLNSSNNRNYLAWYQQKPGQPPKLLIYWASTRESGVPDRFSGSGSGTDFTLTISGLQAEDVAVYYCQQHYSTPFTFGPGTKVDIKSGGGGSEVQLLESGGGLVQPGGSLKLSCAASGFTFNRYAMNWVRQAPGKGLEWVARIRSKYNNYATYYADSVKGRFTISRDDSKNTAYLQMNNLKTEDTAVYYCVRHGNFGNSYLSYFAYWGQGTLVTVSSGGGGSGGGGSGGGGSELVVTQEPSLTVSPGGTVTLT[about 80 residues omitted here]FGGGTKLTVLHHHHHH
B3: the binding result is recorded as “binds”.

B4: MCSP-F9 HLP × G4H HLP (bispecific antibody)
chain: EVQLQESGPGLVKPSETLSLTCVVSGGSISSSNWWSWVRQPPGKGLEWLGTIYYNGNTYYNPSLKSRVTISVDTSKNQFSLRLSSVTAADTAVYYCAKSWVSWFASWGQGTLVTVSSGGGGSGGGGSGGGGSELVMTQSPDSLAVSLGERATINCKSSQSVLSSSNNKNYLNWYQQKPGQPPKLLIYWASTRESGVPDRFSGSGSGTDFTLTISSLQAEDVAVYYCQQHYSVPFTFGPGTKVDIKSGGGGSEVQLLESGGGLVQPGGSLKLSCAASGFTFNRYAMNWVRQAPGKGLEWVARIRSKYNNYATYYADSVKGRFTISRDDSKNTAYLQMNNLKTEDTAVYYCVRHGNFGNSYLSYFAYWGQGTLVTVSSGGGGSGGGGSGGGGSELVVTQEPSLTVSPGGTVTLT[about 80 residues omitted here]FGGGTKLTVLHHHHHH
As for B4, the binding result was “binds”.
